Patent US11130822B2 (ROCHE GLYCART AG, dated 2021)

Target: human TNC A2 (human, UniProt P24821)
Test: SPR (ProteOn XPR36), TNCA2 on NLC chip, 1:1 interaction model

B1: TNC A2-targeted 2B10-based IgG-IL-10M1 immunoconjugate (other)
heavy 1: QVQLVQSGAEVKKPGSSVKVSCKASGGTFSSYAISWVRQAPGQGLEWMGGIIPIFGTANYAQKFQGRVTITADKSTSTAYMELSSLRSEDTAVYYCARLYGYAYYGAFDYWGQGTTVTVSSASTKGPSVFPLAPSSKSTSGGTAALGCLVKDYFPEPVTVSWNSGALTSGVHTFPAVLQSSGLYSLSSVVTVPSSSLGTQTYICNVNHKPSNTKVDKKV[human IgG1 Fc with changes not given here]
heavy 2: QVQLVQSGAEVKKPGSSVKVSCKASGGTFSSYAISWVRQAPGQGLEWMGGIIPIFGTANYAQKFQGRVTITADKSTSTAYMELSSLRSEDTAVYYCARLYGYAYYGAFDYWGQGTTVTVSSASTKGPSVFPLAPSSKSTSGGTAALGCLVKDYFPEPVTVSWNSGALTSGVHTFPAVLQSSGLYSLSSVVTVPSSSLGTQTYICNVNHKPSNTKVDKKVEPKSCDKTHTCPPCPAPEAAGGPSVFLFPPKPKDTLMISRTPEVTCVVVDVSHEDPEVKFNWYVDGVEVHNAKTKPREEQYNSTYRVVSVLTVLHQDWLNGKEYKCKVSNKALGAPIEKTISKAKGQPREPQVCTLPPSRDELTKNQVSLSCAVKGFYPSDIAVEWESNGQPENNYKTTPPVLDSDGSFFLVSKLTVDKSRWQQGNVFSCSVMHEALHNHYTQKSLSLSPGGGGGSGGGGSGGGGSSPGQGTQSENSCTHFPGNLPNMLRDLRDAFSRVKTFFQMKDQLDNLLLKESLLEDFKGYLGCQALSEMIQFYLEEVMPQAENQDPDIKAHVNSLGENLKTLRLRLRRCHRFLPCENGGGSGGKSKAVEQVKNAFNKLQEKGIYKAMSEFDIFINYIEAYMTMKIRN
light: DIQMTQSPSSLSASVGDRVTITCRASQGIRNDLGWYQQKPGKAPKRLIYAASSLQSGVPSRFSGSGSGTEFTLTISSLQPEDFATYYCLQNGLQPATFGQGTKVEIKRTVAAPSVFIFPPSDEQLKSGTASVVCLLNNFYPREAKVQWKVDNALQSGNSQESVTEQDSKDSTYSLSSTLTLSKADYEKHKVYACEVTHQGLSSPVTKSFNRGEC
Kd: 0.052 nM
koff: 9.35e-05 s⁻¹
kon: 1.8e+06 M⁻¹ s⁻¹
